# Data from publication PMC6919601, “Identification of Plasmodium dipeptidyl aminopeptidase allosteric inhibitors by high throughput screening” (PLoS ONE, 2019).
# Out of some 110,000 compounds screened, about 230 (0.21%) showed an effect of 50% or more. The list shows a part of the results.
# Target: DPAP1 (Plasmodium falciparum, UniProt Q8IIJ9)
# Experiment: primary screen, percent inhibition; read by cleavage of a fluorogenic dipeptide substrate; higher = more effect of the substance
# Design: species or system P. falciparum D10 trophozoite lysates; single well
# 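Also: 30 min substrate incubation versus DMSO and 10 µM JCP410 controls.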
# DPAP1, sequence (Q8IIJ9 whole entry, looked up): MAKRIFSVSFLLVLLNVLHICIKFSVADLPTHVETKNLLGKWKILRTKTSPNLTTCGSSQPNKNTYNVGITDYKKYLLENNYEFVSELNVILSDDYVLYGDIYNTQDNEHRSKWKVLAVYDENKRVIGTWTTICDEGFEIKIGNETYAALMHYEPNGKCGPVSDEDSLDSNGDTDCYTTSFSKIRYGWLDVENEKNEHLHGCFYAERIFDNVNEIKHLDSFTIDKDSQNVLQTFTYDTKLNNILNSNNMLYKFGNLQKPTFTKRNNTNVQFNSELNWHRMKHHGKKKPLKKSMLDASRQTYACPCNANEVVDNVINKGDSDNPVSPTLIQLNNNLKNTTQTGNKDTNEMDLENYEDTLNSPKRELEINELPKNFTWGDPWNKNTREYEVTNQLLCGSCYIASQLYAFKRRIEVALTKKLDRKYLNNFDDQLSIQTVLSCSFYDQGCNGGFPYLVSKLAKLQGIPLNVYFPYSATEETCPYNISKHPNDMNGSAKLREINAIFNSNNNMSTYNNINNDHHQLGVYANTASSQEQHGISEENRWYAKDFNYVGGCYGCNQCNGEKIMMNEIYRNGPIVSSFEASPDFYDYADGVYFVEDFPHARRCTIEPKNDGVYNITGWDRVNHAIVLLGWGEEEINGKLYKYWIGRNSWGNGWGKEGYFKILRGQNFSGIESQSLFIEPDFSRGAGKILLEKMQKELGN
row,Compound,% Inhibition @ 10 uM [%]
1,CCC(CC)C(=O)Nc1cc(Cl)ccc1OC,1.84
2,COc1ccccc1/C=C/c1nc(C#N)c(N2CC(C)OC(C)C2)o1 (centres unmarked),-0.808
3,CC(C)Cn1cc(NC(=O)N(Cc2ccco2)C(C)c2ccccc2)c2ccccc2c1=O (centres unmarked),-7.53
4,CCOCCCNC(=O)c1ccc2c(c1)nc(C)n2-c1cc(OC)c(OC)c(OC)c1,-2.17
5,CCN(CC)CC#CCC(C)OC(C)(C)C (centres unmarked),-2.32
6,CCCn1c2ccccc2c2cnn(CC(=O)NCc3ccc(F)cc3)c(=O)c21,0.483
7,COCCOC(=O)C1=C(C)NC(=O)NC1c1cn(-c2ccccc2)nc1-c1ccc(OC)cc1 (centres unmarked),-0.178
8,CCCCN(CC)CCNC(=O)Cn1cnc2onc(-c3ccc(F)cc3)c2c1=O,-7.87
9,O=C(c1scc2c1CCCC2)N1CCCC1,1.35
10,CC[C@H](NC(=O)C(CC1CCCCC1)C(=O)N[C@@H](CC)C(=O)c1nc2ccccc2o1)C(=O)c1nc2ccccc2o1,7.14
11,CCOc1ccc2nc(Nc3ncnc4onc(-c5ccc(Cl)cc5)c34)sc2c1,-3.95
12,CCOC(=O)C1=C(C)N=c2s/c(=C\c3ccc(Cl)cc3)c(=O)n2C1c1ccc(N(C)C)cc1 (centres unmarked),2
13,N#Cc1cccc(NC(=O)Nc2ccc(Cl)cc2)c1,-4.15
14,OC[C@@H]1OC(Nc2ccc(OC(F)(F)F)cc2)[C@H](O)[C@@H](O)[C@@H]1O (some centres unmarked),2.49
15,C#CCSc1nc2c(c(=O)n1C)C1(CCCCC1)Cc1ccccc1-2,-3.38
16,COc1ccc(NC(=O)CSc2nc(-c3cccc(OC)c3)ccc2C#N)cc1,0.658
17,O=S(=O)(NCC1CCN(S(=O)(=O)c2ccccc2)CC1)c1ccccc1,-3.72
18,Cc1ccc(-c2nc(CSCC(=O)NC(C)C)c(C)o2)cc1,2.37
19,O=C1c2cccnc2C(=O)N1Cc1ccc(S(=O)(=O)N2CCN(Cc3ccccc3)CC2)cc1,-3.36
20,CCn1cc(CCC(=O)NCc2ccc3c(c2)OCO3)c2ccccc21,-4.04
21,COc1ccc(C(=O)c2cnc3ccc(F)cc3c2S(=O)(=O)c2ccccc2)cc1,-10.2
22,CCC1CCCCN1CCCNC(=O)c1cc2cc3ccc(C)cc3nc2o1 (centres unmarked),-3.35
23,Cc1ccc(N2C(=O)C3CC=CCC3C2=O)c(C)c1 (centres unmarked),-12.4
24,CCOC(=O)N1CCC(NC(=O)CSCc2nc(-c3ccccc3Cl)oc2C)CC1,5.56
25,COc1ccc(CCNS(=O)(=O)c2ccc(OC)c(C)c2)cc1,-5.14

row,Compound,% Inhibition @ 10 uM [%]
1,COc1ccc(CN2C(=O)CC(=O)NC2=O)cc1,-5.9
2,COc1ccc(-c2cc(=O)oc3c4c(ccc23)OCN(Cc2ccc(OC)c(OC)c2)C4)cc1,0.685
3,Cc1ccc(S(=O)(=O)CC2CSc3nc4ccccc4n32)cc1 (centres unmarked),3.73
4,CC1CN(S(=O)(=O)c2ccc(Cl)cc2)C(C)CN1S(=O)(=O)c1ccc(Cl)cc1 (centres unmarked),-0.116
5,O=C(Cn1nc(Cc2cccnc2)c2ccccc2c1=O)NCc1cccs1,-12.4
6,Cc1ccc(O)c(C(CC(=O)N2CCCCC2)c2ccccc2)c1 (centres unmarked),2.32
7,COc1ccc(C(=O)NCc2ccccn2)cc1OC,-0.318
8,COc1ccccc1CN1CCCC(O)C1 (centres unmarked),2.33
9,COc1cccc(-c2nc3ccccc3s2)c1,-5.46
10,CN(C)c1ccc(/C=C2\C(=O)NC(=S)N(c3ccc(Cl)cc3)C2=O)cc1,-3.38
11,O=C(CSc1nnc(COc2ccccc2)o1)N1CCOCC1,6.13
12,CCOC(=O)c1cc(-c2ccc(OC)c(S(=O)(=O)NCCC3=CCCCC3)c2)on1,0.92
13,Cc1cccc2cc(-c3ccc(F)cc3)cn12,1.52
14,Cc1ccn2cc(-c3ccc(Cl)cc3)cc2c1,-1.6
15,COc1cc(C)c(Cl)c(C)c1S(=O)(=O)N1CC(C)OC(C)C1 (centres unmarked),-1.43
16,Cc1ccc(S(=O)(=O)n2nc(-c3ccc(Cl)cc3)nc2N)cc1,-2.74
17,COc1ccc(-c2nnc3sc(NC(=O)c4ccccc4)nn23)cc1,3.3
18,CC(=O)c1ccc(N2CCN(Cc3ccccc3Br)CC2)cc1,3.48
19,CN1C(=O)C(=Cc2c[nH]nc2-c2ccccc2)C(=O)N(C)C1=O,15.9
20,CC(=O)N1C(C(=O)O)CSC1c1cccc(C)c1 (centres unmarked),-7.5
21,O=C(O)c1ccc2c(c1)C(=O)N(c1ccc(O)cc1)C2=O,-3.16
22,CC1CN(c2ccc([N+](=O)[O-])c3cccnc23)CC(C)N1 (centres unmarked),-1.29
23,COc1ccc(CNC2CCCCC2C)c2ccccc12 (centres unmarked),-3.35
24,COc1cccc(NC(=O)c2cccc(Br)c2)c1,-3.03
25,Cc1ccc(Cl)cc1-n1ncc2c(N3CCN(C)CC3)ncnc21,0.925

row,Compound,% Inhibition @ 10 uM [%]
1,COc1ccc(C2C(C(=O)Nc3ccc(F)cc3)=C(C)Nc3nc(-c4cccs4)nn32)c(OC)c1 (centres unmarked),-2.86
2,CC(C)(C)OC(=O)N1CCC(n2nnc(C(N)=O)c2N)CC1,3.88
3,COc1cc2c(cc1OC)C(C)N(c1ncnc3onc(C)c13)CC2 (centres unmarked),-5.75
4,CCCSc1ccc2nc(-c3ccccc3)cn2c1,2.62
5,CC1CC(c2nc(N)cs2)CCO1 (centres unmarked),-1.99
6,COC(=O)c1c(N)n(-c2cc(C)cc(C)c2)c2nc3ccccc3nc12,3.39
7,COc1ccc(C(CC(=O)O)NC(=O)c2cc3cc(Br)ccc3oc2=O)cc1OC (centres unmarked),2.7
8,CCc1cc2c(cc3c(=O)n(CCCC(=O)NCCc4ccccc4)ncn32)s1,6.35
9,O=C(Cn1ccc2cc(S(=O)(=O)N3CCCCC3)ccc21)N1CCN(c2ccccn2)CC1,-1.63
10,CCOc1ccc(CCNC(=O)CCS(=O)(=O)c2ccc(Br)cc2)cc1OCC,5.85
11,CCC1CCCCN1CCCNC(=O)c1noc2c1COc1ccc(C)cc1-2 (centres unmarked),-5.3
12,CCCCc1ccc(NC(=O)c2cnccn2)cc1,2.91
13,O=C(O)c1cccc(-c2ccc(/C=C/c3cc(C(F)(F)F)nc(O)n3)o2)c1,12.3
14,COc1cc(C2CC(c3c(O)cc(C)oc3=O)=NCCS2)cc(OC)c1OC (centres unmarked),-3.62
15,CN(C)CCN(Cc1ccccc1)Cc1coc2ccc(Cl)cc2c1=O,-4.75
16,CSc1ccc(NC(=O)c2sc3nc4c(cc3c2N)CCC4)cc1,-2.77
17,CCOC(=O)N1CCC(NC(=O)c2cc3c(s2)-c2c(C)cccc2OC3)CC1,-4.85
18,O=C(CCN1C(=O)c2ccccc2C1=O)Nc1ccccc1O,-4.06
19,CCC(C)NC(=O)c1ccc2c(c1)sc1nc(-c3ccc(F)cc3)cn12 (centres unmarked),1.09
20,COc1ccc(OC)c(C2C(C#N)=C(N)Oc3c2c(O)nc2ccccc32)c1 (centres unmarked),-2.21
21,COc1ccc(C(=O)Nc2ccccc2C(=O)NC(C(=O)Nc2ccccc2)C(C)C)cc1 (centres unmarked),10.5
22,O=C(CCN1C(=O)c2ccccc2C1=O)NC1CCCCC1,1.34
23,COc1cc2cc(=O)n(Cc3ccccc3)c(C)c2cc1OC,1.43
24,Cc1cccc(NC(=O)C2CC(=O)N(c3ccc(C(C)(C)C)cc3)C2)c1C (centres unmarked),1.83
25,CCOc1ccc(C(=O)C2=C(O)C(=O)N(CCN(CC)CC)C2c2ccc(F)cc2)c(C)c1 (centres unmarked),3.15

row,Compound,% Inhibition @ 10 uM [%]
1,CC(NC(=O)c1cccc2c1C(=O)N(Cc1cccnc1)C2)C12CC3CC(CC(C3)C1)C2 (centres unmarked),-0.499
2,CC(=O)Nc1cccc(NC(=O)Nc2cccc(Cl)c2)c1,-0.192
3,Cc1nc(SCC(=O)Nc2ccccc2)nc2c1CCCC2,-1.61
4,NC(=O)c1cc(S(=O)(=O)NCCCc2ccccc2)cs1,6.1
5,COc1ccc(CCNC(=O)c2cc3n(n2)C(C(F)(F)F)CC(c2ccco2)N3)cc1 (centres unmarked),-0.958
6,COc1ccc(C/C(O)=C(\C#N)c2nc3ccccc3[nH]2)cc1OC,-3.78
7,CCC1CCCCN1Cc1ccc(CNC(=O)Cn2ncc3c4ccccc4nc-3c2O)o1 (centres unmarked),5.27
8,CS(=O)(=O)c1ccc(C(=O)N[C@@H](Cc2cc(I)c(O)c(I)c2)C(=O)NCC#N)cc1,4.63
9,CC(C)(C)NC(=O)C1CCN(S(=O)(=O)c2cccc3nsnc23)CC1,3.53
10,Cc1ccc(C)n1-c1nnc(N2CCC(C(=O)NCCCN3CCN(C)CC3)CC2)s1,2.76
11,O=c1/c(=C/c2ccc(-c3ccc(-n4cnnn4)cc3)o2)sc2nc3ccccc3n12,9.77
12,O=C(NC1CCCCCCC1)C1CCCN(c2nc3ccccc3o2)C1 (centres unmarked),-3.12
13,FC(F)(F)Oc1ccc(-n2nnnc2SCc2ccccn2)cc1,-5.96
14,C=CCn1c(SC)nc(O)cc1=O,-1.22
15,Cc1oc(-c2ccc(Cl)cc2)nc1CN1CCCC(C(=O)NCc2cccnc2)C1 (centres unmarked),-1.05
16,CN(C(=O)Cc1coc2ccc3ccccc3c12)c1ccccc1,-1.44
17,COc1cccc(CNC(=O)CN2C(=O)c3ccccc3Sc3ncccc32)c1,-12.5
18,Cc1nc2nc(C)c(N)c(O)n2n1,-2.19
19,CCN(CC)CCCn1c(C)cc2c(c1=O)C(c1ccc(OC)c(OC)c1OC)C(C#N)=C(N)O2 (centres unmarked),2.31
20,COc1ccccc1/C=C/C1=NC(=C\C(Cl)=C\c2ccccc2)/C(=O)O1,-2.6
21,CCOc1ccc(C2c3c(oc4ccc(F)cc4c3=O)C(=O)N2CCCN2CCOCC2)cc1OC (centres unmarked),-4.78
22,Cc1ccc(-c2c(NCc3ccccn3)c(=O)c2=O)cc1,1.69
23,CCOC(=O)C1=CN(Cc2ccc(Cl)cc2)C=C(C(=O)OCC)C1c1ccccc1OCC,3.45
